Measurements reported in the antibiotic and cytotoxicity screens of Wong et al. (2023).
This is one part of the list.

These compounds were tested on S. aureus RN4220 (assay: growth inhibition call (relative growth <= 0.2)). Conditions: 50 µM.

Growth inhibition call, inactive:
C[C@@H]1CN([C@H](C)CO)C(=O)c2cccc(NC(=O)C3CC3)c2O[C@@H]1CN(C)Cc1ccc(C(=O)O)cc1, CCCNC(=O)Nc1ccc2c(c1)OC[C@H](C)N(Cc1ccc(-c3ccccn3)cc1)C[C@@H](C)[C@@H](OC)CN(C)C2=O, CC(=O)Nc1ccccc1, C[N+](C)(C)CCOP(=O)([O-])OP(=O)(O)OCC1OC(n2ccc(N)nc2=O)C(O)C1O (configuration not stated), COC(=O)c1cc(C)cc(=O)o1, COc1ccc(S(=O)(=O)N(C)C[C@@H]2Oc3ccc(NC(=O)Cn4cnnn4)cc3CC(=O)N([C@H](C)CO)C[C@H]2C)cc1, O=C(C[C@@H]1C=C[C@@H](NC(=O)Nc2ccc3c(c2)OCO3)[C@H](CO)O1)NCCCN1CCOCC1, C[C@H]1CN([C@@H](C)CO)S(=O)(=O)c2ccc(C#CCN(C)C)cc2O[C@@H]1CN(C)Cc1cccnc1, CNC[C@@H]1OCCCC[C@@H](C)Oc2ccc(NC(=O)c3ccncc3)cc2C(=O)N([C@H](C)CO)C[C@H]1C, C[C@H](CO)N1C[C@H](C)[C@@H](CN(C)S(=O)(=O)c2ccc(Cl)cc2)Oc2ccc(N(C)C)cc2C1=O, C[C@H]1CN([C@@H](C)CO)C(=O)c2cc(NC(=O)C3CCCCC3)ccc2O[C@H]1CN(C)Cc1ccc(C(F)(F)F)cc1, C[C@@H]1CCCCO[C@H](CN(C)C(=O)Nc2cccc3ccccc23)[C@@H](C)CN([C@H](C)CO)C(=O)c2cc(NS(=O)(=O)c3ccc(Cl)cc3)ccc2O1
